Positions count from the first letter of the chain named. This is one part of the list.
T1: RBFOX1 RRM (Homo sapiens, UniProt Q9NWB1 109-208)
T1 sequence: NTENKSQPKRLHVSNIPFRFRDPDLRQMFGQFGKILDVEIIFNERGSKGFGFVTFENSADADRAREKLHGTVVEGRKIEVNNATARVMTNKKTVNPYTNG

B1: CCGAGGU (DNA:RNA)
RNA: GGGAGACCGGAAUUCAGAUUGUCCCCGAGGUUUAAAUCCCGUCGUAGCCACCA
DNA 1: CAATCTGAATTCCGGTCTCCC
DNA 2: TGGTGGCTACGACGGGATT
B2: UUAUUCU (DNA:RNA)
RNA: B1 RNA with C25U, C26U, G27A, A28U, G29U, G30C
DNA 1: CAATCTGAATTCCGGTCTCCC
DNA 2: TGGTGGCTACGACGGGATT
B3: UCGUUUA (DNA:RNA)
RNA: B1 RNA with C25U, A28U, G29U, G30U, U31A
DNA 1: CAATCTGAATTCCGGTCTCCC
DNA 2: TGGTGGCTACGACGGGATT
B4: CAAGUUA (DNA:RNA)
RNA: B1 RNA with C26A, G27A, A28G, G29U, G30U, U31A
DNA 1: CAATCTGAATTCCGGTCTCCC
DNA 2: TGGTGGCTACGACGGGATT
B5: GUAAGCA (DNA:RNA)
RNA: B1 RNA with C25G, C26U, G27A, G30C, U31A
DNA 1: CAATCTGAATTCCGGTCTCCC
DNA 2: TGGTGGCTACGACGGGATT
B6: CAAUGAC (DNA:RNA)
RNA: B1 RNA with C26A, G27A, A28U, G30A, U31C
DNA 1: CAATCTGAATTCCGGTCTCCC
DNA 2: TGGTGGCTACGACGGGATT
B7: CUGAUUU (DNA:RNA)
RNA: B1 RNA with C26U, G29U, G30U
DNA 1: CAATCTGAATTCCGGTCTCCC
DNA 2: TGGTGGCTACGACGGGATT
B8: CUCGCAA (DNA:RNA)
RNA: B1 RNA with C26U, G27C, A28G, G29C, G30A, U31A
DNA 1: CAATCTGAATTCCGGTCTCCC
DNA 2: TGGTGGCTACGACGGGATT
B9: AAGCCAU (DNA:RNA)
RNA: B1 RNA with C25A, C26A, A28C, G29C, G30A
DNA 1: CAATCTGAATTCCGGTCTCCC
DNA 2: TGGTGGCTACGACGGGATT
B10: AGUAGCG (DNA:RNA)
RNA: B1 RNA with C25A, C26G, G27U, G30C, U31G
DNA 1: CAATCTGAATTCCGGTCTCCC
DNA 2: TGGTGGCTACGACGGGATT
B11: AGCAUCA (DNA:RNA)
RNA: B1 RNA with C25A, C26G, G27C, G29U, G30C, U31A
DNA 1: CAATCTGAATTCCGGTCTCCC
DNA 2: TGGTGGCTACGACGGGATT
B12: UAAGUGG (DNA:RNA)
RNA: B1 RNA with C25U, C26A, G27A, A28G, G29U, U31G
DNA 1: CAATCTGAATTCCGGTCTCCC
DNA 2: TGGTGGCTACGACGGGATT
B13: AUCCGCC (DNA:RNA)
RNA: B1 RNA with C25A, C26U, G27C, A28C, G30C, U31C
DNA 1: CAATCTGAATTCCGGTCTCCC
DNA 2: TGGTGGCTACGACGGGATT
B14: UCGGCAG (DNA:RNA)
RNA: B1 RNA with C25U, A28G, G29C, G30A, U31G
DNA 1: CAATCTGAATTCCGGTCTCCC
DNA 2: TGGTGGCTACGACGGGATT
B15: UUUCCCG (DNA:RNA)
RNA: GGGAGACCGGAAUUCAGAUUGUCCUUUCCCGUUAAAUCCCGUCGUAGCCACCA
DNA 1: CAATCTGAATTCCGGTCTCCC
DNA 2: TGGTGGCTACGACGGGATT
B16: GAGCGUU (DNA:RNA)
RNA: B1 RNA with C25G, C26A, A28C, G30U
DNA 1: CAATCTGAATTCCGGTCTCCC
DNA 2: TGGTGGCTACGACGGGATT
B17: CCUGGAA (DNA:RNA)
RNA: B1 RNA with G27U, A28G, G30A, U31A
DNA 1: CAATCTGAATTCCGGTCTCCC
DNA 2: TGGTGGCTACGACGGGATT
B18: GGACGCA (DNA:RNA)
RNA: B15 RNA with U25G, U26G, U27A, C29G, G31A
DNA 1: CAATCTGAATTCCGGTCTCCC
DNA 2: TGGTGGCTACGACGGGATT
B19: GUUAUAG (DNA:RNA)
RNA: B15 RNA with U25G, C28A, C29U, C30A
DNA 1: CAATCTGAATTCCGGTCTCCC
DNA 2: TGGTGGCTACGACGGGATT
B20: UUUGAUA (DNA:RNA)
RNA: B15 RNA with C28G, C29A, C30U, G31A
DNA 1: CAATCTGAATTCCGGTCTCCC
DNA 2: TGGTGGCTACGACGGGATT

Each binder was assayed against T1, RBFOX1 RRM (assay: EMSA; HiTS-Eq, 1 nM pool, 10 min; buffer printed only for the single-RNA assays: 10 mM Tris pH 7.5, 150 mM NaCl, 3.4 mM EDTA, 0.001% NP-40, 30 C). Details: tags: His6 N-terminal (pET28a); label: 5' 32P.
Procedure, shortened: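 Relative association constants, normalised to the cognate motif, were derived by comparing read counts of each RNA species with those of the control reaction. The RNA sequenced was the free fraction, separated by 8% native PAGE after a 10 min equilibration in 50 µL of 1 nM 5′-radiolabelled RNA (7 randomized nucleotides) with increasing concentrations of purified wild-type or mutant RbFox RRM.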

Row | Binder | binding signal
1 | B1 | 0.0153 KA relative to UGCAUGU
2 | B2 | 0.00479 KA relative to UGCAUGU
3 | B3 | 0.00996 KA relative to UGCAUGU
4 | B4 | 0.00194 KA relative to UGCAUGU
5 | B5 | 0.0102 KA relative to UGCAUGU
6 | B6 | 0.00581 KA relative to UGCAUGU
7 | B7 | 0.012 KA relative to UGCAUGU
8 | B8 | 0.00552 KA relative to UGCAUGU
9 | B9 | 0.00193 KA relative to UGCAUGU
10 | B10 | 0.0104 KA relative to UGCAUGU
11 | B11 | 0.0109 KA relative to UGCAUGU
12 | B12 | 0.00934 KA relative to UGCAUGU
13 | B13 | 0.00344 KA relative to UGCAUGU
14 | B14 | 0.0195 KA relative to UGCAUGU
15 | B15 | 0.00667 KA relative to UGCAUGU
16 | B16 | 0.0169 KA relative to UGCAUGU
17 | B17 | 0.016 KA relative to UGCAUGU
18 | B18 | 0.0198 KA relative to UGCAUGU
19 | B19 | 0.0111 KA relative to UGCAUGU
20 | B20 | 0.0145 KA relative to UGCAUGU

Source: PMC9911399, “Two distinct binding modes provide the RNA-binding protein RbFox with extraordinary sequence specificity”
